In the supplement of paper PMC3334620:
In all, about 33,000 sequences were measured (“E-score (-0.5 to 0.5)”: median about -0.012, highest 2% from about 0.29 on). The list shows a part of the results.

target: T1, Ybr033w (UniProt P38073); assay: PBM E-score (8-mer binding enrichment) (E-score (-0.5 to 0.5)); higher = stronger / more preferred TF binding; most listed sequences are background and not binding sites; conditions: protein concentration: 200 nM; construct: GST-full length
T1 sequence: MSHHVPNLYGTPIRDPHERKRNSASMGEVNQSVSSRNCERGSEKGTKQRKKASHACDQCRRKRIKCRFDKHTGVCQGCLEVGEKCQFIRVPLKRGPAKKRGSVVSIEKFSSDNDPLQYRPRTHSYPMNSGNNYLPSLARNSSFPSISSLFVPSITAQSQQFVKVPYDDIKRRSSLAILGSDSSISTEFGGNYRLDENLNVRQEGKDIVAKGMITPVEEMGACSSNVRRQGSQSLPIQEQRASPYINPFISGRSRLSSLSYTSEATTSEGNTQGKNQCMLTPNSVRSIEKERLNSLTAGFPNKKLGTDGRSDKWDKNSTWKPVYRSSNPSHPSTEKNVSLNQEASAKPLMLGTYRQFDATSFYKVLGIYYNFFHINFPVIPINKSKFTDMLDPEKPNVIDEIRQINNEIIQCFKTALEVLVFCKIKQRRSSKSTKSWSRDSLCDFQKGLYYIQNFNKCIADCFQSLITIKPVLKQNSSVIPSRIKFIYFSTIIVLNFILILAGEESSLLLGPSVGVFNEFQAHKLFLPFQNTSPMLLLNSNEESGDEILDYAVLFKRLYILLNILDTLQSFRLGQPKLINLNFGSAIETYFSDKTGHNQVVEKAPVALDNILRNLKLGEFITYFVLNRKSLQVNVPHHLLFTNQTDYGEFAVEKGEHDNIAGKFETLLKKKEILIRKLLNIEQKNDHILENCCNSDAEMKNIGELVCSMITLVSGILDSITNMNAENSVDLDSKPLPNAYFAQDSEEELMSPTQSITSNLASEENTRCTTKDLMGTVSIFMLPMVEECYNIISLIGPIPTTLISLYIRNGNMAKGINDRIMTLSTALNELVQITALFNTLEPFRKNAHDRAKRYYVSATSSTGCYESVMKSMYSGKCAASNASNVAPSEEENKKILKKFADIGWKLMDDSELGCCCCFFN
In short: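 Full-length yeast transcription factors or their DNA-binding domains, GST-tagged and expressed with PURExpress, were applied at about 100-200 nM to universal all-10-mer Agilent arrays. These arrays had been made double-stranded by primer extension on fresh or once-stripped slides. Detection used fluorescent anti-GST, normalisation used masliner, and E-scores for ungapped eight-base words pooled with reverse complements came from the Universal PBM Analysis Suite.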

| Sequence | PBM E-score |
| --- | --- |
| AGCTAAAC | -0.0716 |
| AAACTTAC | 0.168 |
| AAAACTGT | 0.26 |
| CTGACGAA | 0.0158 |
| AGAGTCGA | -0.0892 |
| GCACTGCA | 0.0352 |
| GACGCTAA | -0.189 |
| CCCCACCA | -0.1 |
| ATGGGATC | -0.0796 |
| AGTCACTC | 0.102 |
| AGTTGATA | 0.211 |
| CTGAACAG | 0.00549 |
| GACTCACA | -0.0481 |
| CTCGATCA | -0.0826 |
| ACGCGAAA | 0.181 |
| CACCTGTC | -0.103 |
| AGCACTCC | -0.0492 |
| GGTATTCA | 0.134 |
| GTCTTATA | 0.0162 |
| ACAGGGCA | 0.00245 |
| CAGATAAG | -0.0549 |
| GTCCCGCA | -0.23 |
| GCGCTGCA | 0.0363 |
| CTGGAACA | 0.31 |
| CGCGCTGC | -0.0548 |

| Sequence | PBM E-score |
| --- | --- |
| CCCGCTGC | -0.347 |
| GCAGGCGC | -0.322 |
| GCGCACGC | -0.185 |
| ATTCGAAC | 0.246 |
| GTCGGGGA | -0.237 |
| GACTCTGA | -0.101 |
| ACTTACGC | 0.0413 |
| CGCCCCCG | -0.255 |
| TGGATGAA | 0.219 |
| AAGGCCCC | -0.252 |
| ACGAACAA | 0.155 |
| AATTAGGG | -0.121 |
| ACTGTGTC | 0.0621 |
| CGGGGACG | -0.255 |
| CACGCACA | 0.136 |
| GCCACACA | -0.102 |
| GAAGAATA | 0.256 |
| AGTGTAAC | -0.0226 |
| ACAATCAC | 0.186 |
| AGGGAGCC | -0.315 |
| CAATGGTA | 0.11 |
| CTGGCTAA | -0.106 |
| ACGAGGCG | 0.0677 |
| GACAATTA | 0.138 |
| CGGAGTAG | 0.0447 |

| Sequence | PBM E-score |
| --- | --- |
| CCGAGGAG | -0.217 |
| AGATAGCT | 0.0181 |
| TGCTCACA | 0.00417 |
| AGTGTTTC | 0.0901 |
| AGTTGAAC | 0.00349 |
| AAGAATAC | 0.211 |
| ATACTCGG | 0.0588 |
| CACGAACA | 0.0414 |
| CATGTATA | 0.152 |
| CGCCGGGA | -0.247 |
| GCGCTCCC | -0.129 |
| ATGTTTGA | 0.103 |
| TCCTGGCA | -0.102 |
| ATGCTGTG | 0.0819 |
| ATAACGTA | 0.226 |
| TAAGAGCA | -0.0966 |
| CCAAGGCC | -0.209 |
| ATGAGTGG | -0.0412 |
| GCTTAGAC | -0.183 |
| GCGAATCA | 0.105 |
| CCCCTGGA | -0.276 |
| ACGCGCAT | -0.0106 |
| CAATAAAG | 0.151 |
| AAATGATT | 0.273 |
| AGATATCC | 0.0838 |

| Sequence | PBM E-score |
| --- | --- |
| ATGTCAGA | -0.0759 |
| AGCGAACA | 0.0794 |
| ACGATCGC | 0.032 |
| TCCGTGAA | -0.0042 |
| CTACTGGA | -0.0522 |
| ACCCCCTA | -0.252 |
| CACTTGAG | -0.108 |
| GTAAAGGA | -0.0618 |
| AGGGACAA | -0.149 |
| GCGAGGCC | -0.0973 |
| ACCAACCG | -0.0498 |
| GACCAGAA | 0.0649 |
| GGGCCTTA | -0.206 |
| ACGAATAA | 0.0842 |
| GCCGGGCC | -0.243 |
| TCCTTGCA | -0.106 |
| AGCCCCCA | -0.395 |
| GTTTCGAA | 0.155 |
| AGGTCTCG | -0.178 |
| GCAGAACA | 0.0454 |
| GTACGAAC | 0.195 |
| ATACAGTA | 0.136 |
| CAGCCGCG | -0.218 |
| CCGGGCAG | -0.122 |
| ACTTGACC | -0.199 |

| Sequence | PBM E-score |
| --- | --- |
| ACCGTGAC | -0.159 |
| AAAAATGG | 0.145 |
| TCCATACA | 0.0807 |
| CGTGGTAC | -0.0603 |
| TATTTCCA | 0.205 |
| AAGCGTTG | -0.152 |
| AGGAGAGC | -0.281 |
| CTATAGCA | 0.136 |
| CGGAGCCC | -0.354 |
| AGAAGACA | 0.0985 |
| CTACTTAA | 0.00655 |
| CATTCAAG | 0.0662 |
| GAGTATGC | 0.023 |
| CCTCCGTA | -0.0161 |
| AGTCCTAG | -0.163 |
| GACACGTA | -0.0468 |
| GGCTCACA | -0.0959 |
| AGCGTCTC | -0.264 |
| AAGGACCG | -0.169 |
| CATGTCGG | 0.00056 |
| CAGCGTAG | 0.0591 |
| CATCGAGC | -0.0235 |
| CAGTCGTC | -0.0227 |
| GAATGGCC | -0.069 |
| CTCCGGTC | -0.113 |

| Sequence | PBM E-score |
| --- | --- |
| CCTCCTGA | -0.201 |
| ATGAGATA | 0.235 |
| CCGGTCCG | -0.21 |
| TCCGAGGA | 0.0122 |
| CCCGTCTC | -0.124 |
| GGACTTAC | -0.101 |
| AGCGTATC | -0.0737 |
| CGTAGGCC | -0.082 |
| GCCCTCGA | -0.34 |
| ACGAGCCT | -0.183 |
| ACCAGCAA | 0.105 |
| CTACCCTC | -0.0104 |
| AGCTAGAC | -0.217 |
| GATTGGCA | -0.067 |
| TCAATCCA | 0.114 |
| ATGGGTTG | -0.0803 |
| CTAAGCAG | -0.105 |
| GCACCCAA | -0.103 |
| GTCATGTA | -0.0598 |
| GCGATCAA | 0.0477 |
| GAATGTTA | 0.108 |
| AGTGTGAA | 0.16 |
| AGCGTCCG | -0.0609 |
| AAAGAGAC | -0.0019 |
| ATGCATCG | 0.0109 |

| Sequence | PBM E-score |
| --- | --- |
| ACGGCGAC | -0.0964 |
| AATTTAGG | 0.229 |
| AAGCATAA | 0.0727 |
| GATGCTAA | 0.0328 |
| ACTCCGGC | -0.0778 |
| ATCGTAGC | -0.0332 |
| GACAACTA | 0.0675 |
| AGACATAC | 0.0201 |
| AGAGGCAT | -0.0565 |
| CGGATTTA | 0.179 |
| CCAGCAAC | 0.0515 |
| CAAGCATG | 0.0671 |
| AATCGGGC | -0.0975 |
| CAATTCAA | 0.172 |
| ACCTTAAT | 0.186 |
| CTAACGGC | -0.0341 |
| CGACGGGC | -0.174 |
| CATTCGCG | 0.0443 |
| AACTTAGC | 0.0118 |
| ACAATCCA | 0.235 |
| AGATAAAG | 0.195 |
| ACACGAGC | -0.166 |
